Measurements reported in the supplement of paper PMC8728848.
This is one part of the list.

What was measured:
Assay in all cases: glycan array binding signal (z-score within array); higher = stronger binding
Settings in all cases: glycan notation: IUPAC condensed, linker removed
[1] = target: Gal(b1-4)GlcNAc(b1-3)Gal(b1-4)GlcNAc(b1-2)[Gal(b1-4)GlcNAc(b1-3)Gal(b1-4)GlcNAc(b1-6)]Man(a1-6)[Gal(b1-4)GlcNAc(b1-3)Gal(b1-4)GlcNAc(b1-2)Man(a1-3)]Man(b1-4)GlcNAc(b1-4)GlcNAc
Method in brief: (§1)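 From the Consortium for Functional Glycomics database, 3228 arrays were curated, keeping only those whose protein sequence was available. Binding is given as a within-array Z-score averaged across arrays sharing a protein sequence and across linkers. Negative Z-scores can be read as non-binding.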

[2] = target: Gal(b1-4)GlcNAc(b1-3)Gal(b1-4)GlcNAc(b1-2)[Gal(b1-4)GlcNAc(b1-3)Gal(b1-4)GlcNAc(b1-6)]Man(a1-6)[Gal(b1-4)GlcNAc(b1-3)Gal(b1-4)GlcNAc(b1-2)Man(a1-3)]Man(b1-4)GlcNAc(b1-4)[Fuc(a1-6)]GlcNAc
Method in brief: as §1

[3] = target: Gal(b1-4)GlcNAc(b1-3)Gal(b1-4)GlcNAc(b1-3)Gal(b1-4)GlcNAc
Method in brief: as §1

[4] = target: Gal(b1-4)GlcNAc(b1-3)Gal(b1-4)GlcNAc(b1-3)Gal(b1-4)GlcNAc(b1-2)Man(a1-3)[Gal(b1-4)GlcNAc(b1-3)Gal(b1-4)GlcNAc(b1-3)Gal(b1-4)GlcNAc(b1-2)Man(a1-6)]Man(b1-4)GlcNAc(b1-4)GlcNAc
Method in brief: as §1

[5] = target: Gal(b1-4)GlcNAc(b1-3)Gal(b1-4)GlcNAc(b1-3)Gal(b1-4)GlcNAc(b1-2)Man(a1-3)[Gal(b1-4)GlcNAc(b1-3)Gal(b1-4)GlcNAc(b1-3)Gal(b1-4)GlcNAc(b1-2)Man(a1-6)]Man(b1-4)GlcNAc(b1-4)[Fuc(a1-6)]GlcNAc
Method in brief: as §1

[6] = target: Gal(b1-4)GlcNAc(b1-3)Gal(b1-4)GlcNAc(b1-3)Gal(b1-4)GlcNAc(b1-2)[Gal(b1-4)GlcNAc(b1-3)Gal(b1-4)GlcNAc(b1-3)Gal(b1-4)GlcNAc(b1-6)]Man(a1-6)[Gal(b1-4)GlcNAc(b1-3)Gal(b1-4)GlcNAc(b1-3)Gal(b1-4)GlcNAc(b1-2)Man(a1-3)]Man(b1-4)GlcNAc(b1-4)[Fuc(a1-6)]GlcNAc
Method in brief: as §1

[7] = target: Gal(b1-4)GlcNAc(b1-3)Gal(b1-4)GlcNAc(b1-3)Gal(b1-4)GlcNAc(b1-3)Gal(b1-4)GlcNAc(b1-2)Man(a1-3)[Gal(b1-4)GlcNAc(b1-3)Gal(b1-4)GlcNAc(b1-3)Gal(b1-4)GlcNAc(b1-3)Gal(b1-4)GlcNAc(b1-2)Man(a1-6)]Man(b1-4)GlcNAc(b1-4)GlcNAc
Method in brief: as §1

[8] = target: Gal(b1-4)GlcNAc(b1-3)Gal(b1-4)GlcNAc(b1-3)Gal(b1-4)GlcNAc(b1-3)Gal(b1-4)GlcNAc(b1-2)Man(a1-3)[Gal(b1-4)GlcNAc(b1-3)Gal(b1-4)GlcNAc(b1-3)Gal(b1-4)GlcNAc(b1-3)Gal(b1-4)GlcNAc(b1-2)Man(a1-6)]Man(b1-4)GlcNAc(b1-4)[Fuc(a1-6)]GlcNAc
Method in brief: as §1

[9] = target: Gal(b1-4)GlcNAc(b1-3)Gal(b1-4)GlcNAc(b1-3)Gal(b1-4)GlcNAc(b1-3)Gal(b1-4)GlcNAc(b1-2)[Gal(b1-4)GlcNAc(b1-3)Gal(b1-4)GlcNAc(b1-3)Gal(b1-4)GlcNAc(b1-3)Gal(b1-4)GlcNAc(b1-6)]Man(a1-6)[Gal(b1-4)GlcNAc(b1-3)Gal(b1-4)GlcNAc(b1-3)Gal(b1-4)GlcNAc(b1-3)Gal(b1-4)GlcNAc(b1-2)Man(a1-3)]Man(b1-4)GlcNAc(b1-4)[Fuc(a1-6)]GlcNAc
Method in brief: as §1

[10] = target: Gal(b1-4)GlcNAc(b1-3)Gal(b1-4)GlcNAc(b1-3)Gal(b1-4)GlcNAc(b1-3)Gal(b1-4)GlcNAc(b1-3)Gal(b1-4)GlcNAc(b1-2)Man(a1-3)[Gal(b1-4)GlcNAc(b1-3)Gal(b1-4)GlcNAc(b1-3)Gal(b1-4)GlcNAc(b1-3)Gal(b1-4)GlcNAc(b1-3)Gal(b1-4)GlcNAc(b1-2)Man(a1-6)]Man(b1-4)GlcNAc(b1-4)GlcNAc
Method in brief: as §1

[11] = target: Gal(b1-4)GlcNAc(b1-3)Gal(b1-4)GlcNAc(b1-3)Gal(b1-4)GlcNAc(b1-3)Gal(b1-4)GlcNAc(b1-3)Gal(b1-4)GlcNAc(b1-2)Man(a1-3)[Gal(b1-4)GlcNAc(b1-3)Gal(b1-4)GlcNAc(b1-3)Gal(b1-4)GlcNAc(b1-3)Gal(b1-4)GlcNAc(b1-3)Gal(b1-4)GlcNAc(b1-2)Man(a1-6)]Man(b1-4)GlcNAc(b1-4)[Fuc(a1-6)]GlcNAc
Method in brief: as §1

[12] = target: Gal(b1-4)GlcNAc(b1-3)Gal(b1-4)GlcNAc(b1-3)Gal(b1-4)GlcNAc(b1-3)Gal(b1-4)GlcNAc(b1-3)Gal(b1-4)GlcNAc(b1-2)[Gal(b1-4)GlcNAc(b1-3)Gal(b1-4)GlcNAc(b1-3)Gal(b1-4)GlcNAc(b1-3)Gal(b1-4)GlcNAc(b1-3)Gal(b1-4)GlcNAc(b1-6)]Man(a1-6)[Gal(b1-4)GlcNAc(b1-3)Gal(b1-4)GlcNAc(b1-3)Gal(b1-4)GlcNAc(b1-3)Gal(b1-4)GlcNAc(b1-3)Gal(b1-4)GlcNAc(b1-2)Man(a1-3)]Man(b1-4)GlcNAc(b1-4)[Fuc(a1-6)]GlcNAc
Method in brief: as §1

[13] = target: Gal(b1-4)GlcNAc(b1-3)Gal(b1-4)GlcNAc(b1-3)Gal(b1-4)GlcNAc(b1-3)Gal(b1-4)GlcNAc(b1-3)Gal(b1-4)GlcNAc(b1-3)Gal(b1-4)GlcNAc(b1-2)Man(a1-3)[Gal(b1-4)GlcNAc(b1-3)Gal(b1-4)GlcNAc(b1-3)Gal(b1-4)GlcNAc(b1-3)Gal(b1-4)GlcNAc(b1-3)Gal(b1-4)GlcNAc(b1-3)Gal(b1-4)GlcNAc(b1-2)Man(a1-6)]Man(b1-4)GlcNAc(b1-4)GlcNAc
Method in brief: as §1

[14] = target: Gal(b1-4)GlcNAc(b1-3)Gal(b1-4)GlcNAc(b1-3)GalNAc
Method in brief: as §1

[15] = target: Gal(b1-4)GlcNAc(b1-3)Gal(b1-4)GlcNAc(b1-3)[Gal(b1-4)GlcNAc(b1-3)Gal(b1-4)GlcNAc(b1-6)]GalNAc
Method in brief: as §1

[16] = target: Gal(b1-4)GlcNAc(b1-3)Gal(b1-4)GlcNAc(b1-6)[Gal(b1-3)]GalNAc
Method in brief: as §1

[17] = target: Gal(b1-4)GlcNAc(b1-3)Gal(b1-4)[Fuc(a1-3)]GlcNAc(b1-3)Gal(b1-4)[Fuc(a1-3)]GlcNAc
Method in brief: as §1

[18] = target: Gal(b1-4)GlcNAc(b1-3)GalNAc
Method in brief: as §1

[19] = target: Gal(b1-4)GlcNAc(b1-3)[Fuc(a1-3)GlcNAc(b1-6)]Gal(b1-4)Glc
Method in brief: as §1

[20] = target: Gal(b1-4)GlcNAc(b1-3)[Gal(b1-4)GlcNAc(b1-6)]Gal(b1-4)GlcNAc
Method in brief: as §1

[21] = target: Gal(b1-4)GlcNAc(b1-3)[GlcNAc(b1-6)]Gal(b1-4)GlcNAc
Method in brief: as §1

[22] = target: Gal(b1-4)GlcNAc(b1-6)Gal(b1-4)GlcNAc
Method in brief: as §1

[23] = target: Gal(b1-4)GlcNAc(b1-6)GalNAc
Method in brief: as §1

[24] = target: Gal(b1-4)GlcNAc(b1-6)[Gal(b1-3)]GalNAc
Method in brief: as §1

[25] = target: Gal(b1-4)GlcNAc(b1-6)[Gal(b1-4)GlcNAc(b1-3)]GalNAc
Method in brief: as §1

Gal(b1-4)GlcNAc6P = target: Gal(b1-4)GlcNAc6P
Method in brief: as §1

Gal(b1-6)Gal = target: Gal(b1-6)Gal
Method in brief: as §1

Gal3S(b1-3)GalNAc = target: Gal3S(b1-3)GalNAc
Method in brief: as §1

Gal3S(b1-3)GlcNAc = target: Gal3S(b1-3)GlcNAc
Method in brief: as §1

[26] = target: Gal3S(b1-3)[Fuc(a1-4)]GlcNAc
Method in brief: as §1

Gal3S(b1-4)Glc = target: Gal3S(b1-4)Glc
Method in brief: as §1

Gal3S(b1-4)Glc6S = target: Gal3S(b1-4)Glc6S
Method in brief: as §1

Gal3S(b1-4)GlcNAc = target: Gal3S(b1-4)GlcNAc
Method in brief: as §1

[27] = target: Gal3S(b1-4)[Fuc(a1-3)]Glc6S
Method in brief: as §1

[28] = target: Gal3S(b1-4)[Fuc(a1-3)]GlcNAc
Method in brief: as §1

[29] = target: Gal3S(b1-4)[Fuc(a1-3)]GlcNAc6S
Method in brief: as §1

Gal3S4S(b1-4)GlcNAc = target: Gal3S4S(b1-4)GlcNAc
Method in brief: as §1

Gal3S6S(b1-4)GlcNAc = target: Gal3S6S(b1-4)GlcNAc
Method in brief: as §1

Gal3S6S(b1-4)GlcNAc6S = target: Gal3S6S(b1-4)GlcNAc6S
Method in brief: as §1

Gal4S(b1-4)GlcNAc = target: Gal4S(b1-4)GlcNAc
Method in brief: as §1

Gal4S6S(b1-4)GlcNAc = target: Gal4S6S(b1-4)GlcNAc
Method in brief: as §1

Gal6P(b1-4)GlcNAc = target: Gal6P(b1-4)GlcNAc
Method in brief: as §1

Gal6S(b1-3)GlcNAc = target: Gal6S(b1-3)GlcNAc
Method in brief: as §1

Gal6S(b1-3)GlcNAc6S = target: Gal6S(b1-3)GlcNAc6S
Method in brief: as §1

Gal6S(b1-4)Glc = target: Gal6S(b1-4)Glc
Method in brief: as §1

B1: rCnSL-A (Clitocybe nebularis) (protein)
chain: VNPNLPGPNDVFVGFRGTNNIVGAIYEKDGIKDTPLNNGADAEMGPGSYITDGLFTARIFASGSAGNNPGTTATVCKIYASGVQWRGAPKGYIPVAYFGNGPTAEQRRQTYLRTLGLPGTAIRFGNLNTNPGQGPTAPRQMVVPPGPLRSLLKASCFPAADTRLPQTLHYFEKRVDWNIITAADSQTWGH
[1]
  glycan array binding signal (z-score): 0.419
[2]
  glycan array binding signal (z-score): 3.11
[3]
  glycan array binding signal (z-score): 0.413
[4]
  glycan array binding signal (z-score): 2.09
[5]
  glycan array binding signal (z-score): 1.24
[6]
  glycan array binding signal (z-score): 5.46
[7]
  glycan array binding signal (z-score): 8.55
[8]
  glycan array binding signal (z-score): 2.68
[9]
  glycan array binding signal (z-score): 10.3
[10]
  glycan array binding signal (z-score): 2.36
[11]
  glycan array binding signal (z-score): 5.05
[12]
  glycan array binding signal (z-score): 13.6
[13]
  glycan array binding signal (z-score): 7.72
[14]
  glycan array binding signal (z-score): 0.164
[15]
  glycan array binding signal (z-score): 0.634
[16]
  glycan array binding signal (z-score): 0.467
[17]
  glycan array binding signal (z-score): 0.017
[18]
  glycan array binding signal (z-score): -0.118
[19]
  glycan array binding signal (z-score): 0.092
[20]
  glycan array binding signal (z-score): 1.9
[21]
  glycan array binding signal (z-score): -0.172
[22]
  glycan array binding signal (z-score): -0.19
[23]
  glycan array binding signal (z-score): -0.14
[24]
  glycan array binding signal (z-score): -0.081
[25]
  glycan array binding signal (z-score): 0.061
Gal(b1-4)GlcNAc6P
  glycan array binding signal (z-score): -0.509
Gal(b1-6)Gal
  glycan array binding signal (z-score): -0.201
Gal3S(b1-3)GalNAc
  glycan array binding signal (z-score): -0.259
Gal3S(b1-3)GlcNAc
  glycan array binding signal (z-score): -0.252
[26]
  glycan array binding signal (z-score): -0.205
Gal3S(b1-4)Glc
  glycan array binding signal (z-score): -0.214
Gal3S(b1-4)Glc6S
  glycan array binding signal (z-score): -0.235
Gal3S(b1-4)GlcNAc
  glycan array binding signal (z-score): -0.297
[27]
  glycan array binding signal (z-score): -0.178
[28]
  glycan array binding signal (z-score): -0.281
[29]
  glycan array binding signal (z-score): -0.25
Gal3S4S(b1-4)GlcNAc
  glycan array binding signal (z-score): -0.235
Gal3S6S(b1-4)GlcNAc
  glycan array binding signal (z-score): -0.268
Gal3S6S(b1-4)GlcNAc6S
  glycan array binding signal (z-score): -0.24
Gal4S(b1-4)GlcNAc
  glycan array binding signal (z-score): -0.261
Gal4S6S(b1-4)GlcNAc
  glycan array binding signal (z-score): -0.328
Gal6P(b1-4)GlcNAc
  glycan array binding signal (z-score): 0.93
Gal6S(b1-3)GlcNAc
  glycan array binding signal (z-score): -0.309
Gal6S(b1-3)GlcNAc6S
  glycan array binding signal (z-score): -0.334
Gal6S(b1-4)Glc
  glycan array binding signal (z-score): -0.242
